This passage reports binding signal results from publication PMC12136788.

The list shows a part of the results.

To fix the notation:
T1: UNK ZnF1-3 (human, UniProt Q9C0B0 31-174)
T1 sequence: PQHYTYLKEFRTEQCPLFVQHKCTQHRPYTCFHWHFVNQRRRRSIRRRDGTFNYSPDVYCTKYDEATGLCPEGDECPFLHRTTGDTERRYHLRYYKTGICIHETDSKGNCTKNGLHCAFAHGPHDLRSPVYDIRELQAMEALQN

B1: chr22:32879901:32879902:+_ENSG00000100225_ENST00000397426|hu_hu|motif|central (ssRNA)
RNA: GGGAGUUCUACAGUCCGACGAUCCUCUGCCAUAUGCGCAUUAUCUUGAAUUGACUCAGCUUCAAAAUUUUGACUAGGCCCGGACAUACUGUCGUCAUUCCAAACACCAGACUGGGCUGCCUGUCCUUGGAAUGAAUCACUUGGCAACAGAGGAUUGAGCAUCA
B2: 125631435_125631555_1209_CDS_ENSG00000151458_ENST00000504087|human|control|control (ssRNA)
RNA: GGGAGUUCUACAGUCCGACGAUCUCCUACCAACAACACACCCCAGGCAGCUCCCUUUCCAGAGACACCACUAGCAUUAUUCCCAGAAUUCAUUACAAGUGAUGGUGCAUUGACAGCACUAUUGCAGCAGUUACUUUUCUCCUGCAACAGAGGAUUGAGCAUCA
B3: 184244383_184244503_3702_3pUTR_ENSMUSG00000047539_ENSMUST00000051431|mouse|control|control (ssRNA)
RNA: GGGAGUUCUACAGUCCGACGAUCUACCAAAAAAAAUGUCAACUUGGACCAGUGGCUUUCGACAUGGGGCACCCAAAUAGUCUUCACAACAGGAGUUAAUGGCCCCCUUGCCUCCAGGCUCUCUCUACAUCACAAGGGGAGUUUCAACAGAGGAUUGAGCAUCA
B4: chr11:87793471:87793472:-_ENSMUSG00000020483_ENSMUST00000020775|mus_mus|mus_mus_mus_hu_False|98_108 (ssRNA)
RNA: GGGAGUUCUACAGUCCGACGAUCUGGGGGCUGGGGAAAAAAAAAUAGCUGGAUCCCCCACCCCCCCACAUUGUCAACCCUACACGAGAGUUUUGAAGGCGACUCAUGAAAAUCAGCAGCUCAAACGGCAAUGACCACCCCACCCAACAGAGGAUUGAGCAUCA
B5: chr8:28385162:28385163:+_ENSG00000104290_ENST00000537916|hu_hu|motif|central (ssRNA)
RNA: GGGAGUUCUACAGUCCGACGAUCGUGAAACAGCAAUGCUUUCUUCUCAAUAGCUUCACUACCCCACUUUGGCACAGCUGCGGAAAACCAUGUGAUGGUAAGAAUUACCCACCAUACACUGCCAGCCAUAGUAAAAAAAUAGAGCAACAGAGGAUUGAGCAUCA
B6: chr16:13687521:13687522:+_ENSMUSG00000022684_ENSMUST00000023365|mus_mus|motif|central (ssRNA)
RNA: GGGAGUUCUACAGUCCGACGAUCGGCUGCAAGACUUUGGACUACAUCAUUAUUCUGCUGAAUGUCUUCAACUCGCAUUCGGAUGGCAUCAGGAAAUAACUUUUCAAUGGCAUCCCUGAGGAGAAUGUUGACUUUAGGAAAACCCAACAGAGGAUUGAGCAUCA
B7: chr2:198365819:198365820:+_ENSG00000115541_ENST00000409468|hu_mus|FALSE|FALSE (ssRNA)
RNA: GGGAGUUCUACAGUCCGACGAUCAGUUUCGGCAGCACUCCUUUCAACCAAUACUCUGUCAAAGAGCGGAAGAAACUUCCUAAAAGCUUGUCCAGCCAUGACUCUCGCCUUCGCCGCCACCACCGCAGCUCCGGACUCUGAACUCAACAGAGGAUUGAGCAUCA
B8: chr10:57943292:57943293:+_ENSMUSG00000003226_ENSMUST00000003310|mus_mus|FALSE|FALSE (ssRNA)
RNA: GGGAGUUCUACAGUCCGACGAUCCAAAGAACCAGUGGCUGAACUGUUGCCAAAUGCAAAUGGCUUGGAUUUUUCACUACUAAAAAUGCUUUUAACAGAUUCUGAGCCAAAUACAAACUUAGGAGGAGAAACUACUGCUUUUGGCAACAGAGGAUUGAGCAUCA
B9: chrX:148438211:148438212:+_ENSMUSG00000025260_ENSMUST00000026289|mus_mus|FALSE|FALSE (ssRNA)
RNA: GGGAGUUCUACAGUCCGACGAUCGUCUGGUUCAUUCUGGCCCAUCUCCCCAGCAACCAGGCGGAUCACAUUGAAAGUGCCUAUAAGAUUCACAUUGAUAACCCGCUGGAAGUCCUCCAAAGUAUGGAUCUUGUUCUUCUUUUGCAACAGAGGAUUGAGCAUCA
B10: chr8:74858975:74858976:-_ENSG00000154582_ENST00000284811|hu_mus|hu_hu_hu_mus_True|18_48 (ssRNA)
RNA: GGGAGUUCUACAGUCCGACGAUCGACCUUGUAGGUAAAAUACAUGCACACUUUUGAUAGCACAUGUGAGGGGAUCUCUCUAAAAUUGACCUCAUUGGUUUCAUUCUCAGCAAACUGACCUGGGCCACUCAACAUAGCCUUUAUCAACAGAGGAUUGAGCAUCA
B11: chr10:118639881:118639882:-_ENSMUSG00000020114_ENSMUST00000020315|mus_mus|FALSE|FALSE (ssRNA)
RNA: GGGAGUUCUACAGUCCGACGAUCAACAUCAGUGGCUUUACAACCUCUGGCUUAUGGAAAUACAGACUUCUGAAGUAAAAGCUACAAAAACAACAAUGGAAGAAAGCCAAACAAACUUCCCGGGAAGGAAAGUAAAGUGGAACACAACAGAGGAUUGAGCAUCA
B12: 57333846_57335874_124_CDS_ENSG00000174780_ENST00000510663|human|control|control (ssRNA)
RNA: GGGAGUUCUACAGUCCGACGAUCAAGGCAUACCACUUUACAAUGCAGGGCAGUUACGUCAUCUUUGUUGAUCUGUAGUAUCUUAUUGACGGUCUUGAGAGCGCGCGUGAAGUCGCCGUUCUGGCCAUACCGGUUCACUUCACUCAACAGAGGAUUGAGCAUCA
B13: chr4:103717771:103717772:-_ENSG00000109332_ENST00000394803|hu_hu|motif|central (ssRNA)
RNA: GGGAGUUCUACAGUCCGACGAUCUCCAGGCAGCUAACUCAUUGGUUUAUGCAACUUUAUUGAAGAAAAAUAAAUCAAUUACGGGCAGAGCUAUUAGUUGAUCACUCAUCCAUUGACAACUUGCAUCAUUUAUUCAGUGCUAUACAACAGAGGAUUGAGCAUCA
B14: 110045949_110064326_450_3pUTR_ENSG00000119318_ENST00000358015|human|control|control (ssRNA)
RNA: GGGAGUUCUACAGUCCGACGAUCGAGGAUUUUGCCUGCAUAAAUUAAUUUUUGACCUGCUACUGGAAAGGCAUCUUUCCCCUUUUCAGAUUCAAUCUUCUCUUUCAGUGCUUUCACCGUCUCCUCGGGGUCAAUGUCUAUCUUCAACAGAGGAUUGAGCAUCA
B15: 89559380_89559500_3313_3pUTR_ENSMUSG00000027950_ENSMUST00000029562|mouse|control|control (ssRNA)
RNA: GGGAGUUCUACAGUCCGACGAUCUGCAGGUCUCCACAGAGGCAGGGGGCCUGUGGGCCAUCUGCCUAGGCAAAGGCGGCUGCCAGGUUACUGGAGCUUAGUCCCUGAUUCGAGUCCCCAACACCUUUCAUCACUGCCACUCCCCAACAGAGGAUUGAGCAUCA
B16: chr1:89340274:89340275:+_ENSMUSG00000048000_ENSMUST00000174671|mus_mus|FALSE|FALSE (ssRNA)
RNA: GGGAGUUCUACAGUCCGACGAUCUUGGCACGGCGUUCAAGGAACUGCUUGGCAAACUCCUUGGCCUCGGAAGUAUCUCCUAAAUAGGCCCUGGUAUAGUCAUGGACUUCAUAAGGAGACUCCACUUCUUUCAAGAAAGAAACACAACAGAGGAUUGAGCAUCA
B17: chr14:94545736:94545737:-_ENSG00000089737_ENST00000330836|hu_hu|FALSE|FALSE (ssRNA)
RNA: GGGAGUUCUACAGUCCGACGAUCCUCCAGCUCAGGAUCUUUCACUUCAAAUUCUUUCUGGGUACUGGUUCCUUCAGUUGCUACAUUUUUACUUUUCUUCAACUUGAUCUUUUUCUUUGGUGAGCUAGACUUUCCCUCCUCCUCCAACAGAGGAUUGAGCAUCA
B18: chr11:46405157:46405158:+_ENSG00000110492_ENST00000395566|hu_hu|hu_hu_hu_mus_False|18_78 (ssRNA)
RNA: GGGAGUUCUACAGUCCGACGAUCCCCUCCCCACUUUGGGCACUUGGUGUGGGCGUGAAGGCAGGGCCGUGAUUGACAGAGCUGACAGGAAGACAAAAGGCACUGGUGGGUUAUAUCUCGGGCCUGGGGGAGAGGAGGGCUCCGCAACAGAGGAUUGAGCAUCA
B19: chrX:71549400:71549401:+_ENSMUSG00000019087_ENSMUST00000019231|mus_hu|mus_mus_mus_hu_False|58_98 (ssRNA)
RNA: GGGAGUUCUACAGUCCGACGAUCGCAGUAGGAAGAGCAAACCUUUCCAGUCCAGUGCGCUGCAGGGUGGGAAAGCACAACCUAGACCACCGUCCCACCCUCAACCCCCCCACUGGCACAGGGUCACACAAUCUGGGUCAAAGACAACAGAGGAUUGAGCAUCA
B20: chr7:44244176:44244177:+_ENSG00000106636_ENST00000223369|hu_mus|hu_hu_hu_mus_False|1_98 (ssRNA)
RNA: GGGAGUUCUACAGUCCGACGAUCACUGUCGCUCCGGACGUAGACGUGGCAAAGAUACUCUUGUUCUUUGACAGAAGCUCUGCUGCCUUUCCCCGAGCGUUCCACAAUCAGUUGACUUGUAAAGGUCAUGAAUUCCUGAACGCUCAACAGAGGAUUGAGCAUCA
B21: 163926216_163943708_1166_3pUTR_ENSMUSG00000018209_ENSMUST00000018353|mouse|control|control (ssRNA)
RNA: GGGAGUUCUACAGUCCGACGAUCCUUCUUUUCAUGGUUCCUUCCUCUUCCUCGUCCUCCGUGUUGAUCACCAUGGUGCCCAGCUGGGACGGCAACGUGUCACCGUGCUCAAUCAUAGUAUUGGCUCCUCCGCUCAUCGUGCUGCAACAGAGGAUUGAGCAUCA
B22: chr1:163117127:163117128:-_ENSG00000143248_ENST00000313961|hu_mus|hu_hu_hu_mus_False|1_98 (ssRNA)
RNA: GGGAGUUCUACAGUCCGACGAUCUGCUACAAAGGAUGGAGGAAAUAUCACAGGGCAACUUUUGGAAGCCUGACCAGAUGACUACUUGAUUAGCUCCUUAUAAAAUUCAGAGCGCACAAAGCGGGGCAGAGAAUCCUUUUCCAUCAACAGAGGAUUGAGCAUCA

For this test, the target named is T1, UNK ZnF1-3. The test is described as follows: nsRBNS (natural sequence RNA bind-n-seq); RBNS binding buffer (assumed for nsRBNS): 25 mM Tris pH 7.5, 150 mM KCl, 3 mM MgCl2, 0.01% Triton X-100, 500 ug/ml BSA, 20 U/ml SUPERase-In, 4 C; UNK is unkempt and MSI1 is Musashi-1; names of the RNAs are library labels; protein concentration not given here; high values mean tight binding.
B1 returned a binding signal of 0.775 enrichment R.

As for B2, the binding signal is 1.22 enrichment R.

Take B3: the binding signal came to 1.54 enrichment R.

Consider B4, for which the binding signal was determined as 2.05 enrichment R.

In the case of B5, the binding signal was found to be 1.87 enrichment R.

For the molecule B6, the binding signal turned out to be 1.42 enrichment R.

Take B7: the binding signal stood at 1.17 enrichment R.

The molecule B8 gave a binding signal of 1.62 enrichment R.

The molecule B9 came in with a binding signal of 0.797 enrichment R.

The molecule B10 had a binding signal of 0.699 enrichment R.

On to B11, for which the binding signal was found to be 1.57 enrichment R.

The molecule B12 showed a binding signal of 0.568 enrichment R.

Molecule B13 had a binding signal of 1.32 enrichment R.

As for B14, the binding signal amounted to 0.579 enrichment R.

B15 yielded a binding signal of 1.15 enrichment R.

Molecule B16 had a binding signal of 0.673 enrichment R.

The molecule B17 gave a binding signal of 0.424 enrichment R.

Take B18: the binding signal amounted to 2.65 enrichment R.

B19: the binding signal amounted to 0.815 enrichment R.

B20 came in with a binding signal of 0.508 enrichment R.

As for B21, the binding signal was 0.503 enrichment R.

In turn, B22 gave a binding signal of 1.67 enrichment R.
